{"source": "PubChem BioAssay AID651687", "about": "(Broad Institute, 2012)", "note": "About 600 (0.17%) of roughly 350,000 compounds were called active. Inconclusive results, whose numbers are uncertain, are shown with a selection of clear calls.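 The calls were made as follows: active = every replicate shows inhibition of at least 40%; inconclusive = mean inhibition at least 40% but some replicate below; inactive = the rest.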", "data": [{"experiment": "inhibitors of PGC1a acetylation signal, primary screen, cell-based, U2OS, AlphaScreen, inhibitor mode (AID 651687);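 also: 0% = neutral control wells and 100% = positive control wells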", "settings": "AlphaScreen anti-acetyl-lysine, at 15.6 µM, stronger effect = higher value, with virally co-expressed GCN5 acetyltransferase", "values": [{"smiles": "O=C(Nc1ccccc1)Nc1cc(Cl)cc(Cl)c1", "inhibition": "inconclusive: 39%"}, {"smiles": "C[C@H](CO)N1C[C@H](C)[C@H](CN(C)S(=O)(=O)c2ccc(F)cc2)Oc2ccc(NS(=O)(=O)c3cn(C)cn3)cc2C1=O", "inhibition": "inconclusive: 51.2%"}, {"smiles": "CCCn1cc(SCC(=O)NCc2ccc3c(c2)OCO3)c2ccccc21", "inhibition": "inactive: -11.6%"}, {"smiles": "COc1ccc(OC)c(N(CC(=O)Nc2ccccc2)S(C)(=O)=O)c1", "inhibition": "inconclusive: 42.7%"}, {"smiles": "C[C@H](CO)N1C[C@H](C)[C@@H](CN(C)Cc2cccnc2)Oc2cc(C#CC3CCCCC3)ccc2S1(=O)=O", "inhibition": "inconclusive: 49.4%"}, {"smiles": "O=C(C[C@@H]1C[C@H]2c3cc(NC(=O)C4CCC4)ccc3O[C@H]2[C@H](CO)O1)NCC(F)(F)F", "inhibition": "inactive: -1.84%"}, {"smiles": "CC(C)(C)NC(=O)Cn1nnc(-c2ccccc2NC(=O)c2ccco2)n1", "inhibition": "inconclusive: 44.4%"}, {"smiles": "C=C1C(=O)[C@]23C[C@H]1CC[C@H]2[C@]1(C)[C@@H](OC(C)=O)CC[C@@](C)(C(=O)OC)[C@H]1C[C@@H]3OC(C)=O", "inhibition": "active: 94%"}, {"smiles": "CC1CCN(S(=O)(=O)c2ccc(Oc3ccc([N+](=O)[O-])cc3)cc2)CC1", "inhibition": "active: 53.9%"}, {"smiles": "O=C(Nc1ccc(F)cc1)C1CCCN1S(=O)(=O)c1cccc2nsnc12", "note": "(stereo unspecified)", "inhibition": "inconclusive: 41.2%"}, {"smiles": "COc1ccc2c3c([nH]c2c1)[C@@H](CO)NCC31CN(S(=O)(=O)c2ccccc2)C1", "inhibition": "inactive: -0.284%"}, {"smiles": "COc1cc(/C=C2\\SC(=O)NC2=O)ccc1Oc1ccc([N+](=O)[O-])cn1", "inhibition": "inconclusive: 42.2%"}, {"smiles": "C=CCc1c(OC)ccc2c1c(S(=O)(=O)c1ccc(C)cc1)cn2COC", "inhibition": "inactive: -3.64%"}, {"smiles": "O=[N+]([O-])c1ccccc1-c1ccc(C(=S)N2CCN(c3ccccc3)CC2)o1", "inhibition": "inconclusive: 40.7%"}, {"smiles": "CCCSCC(=O)Nc1ncc2c(n1)-c1ccccc1CC2", "inhibition": "inconclusive: 45.1%"}, {"smiles": "O=S(=O)(Nc1ccccn1)c1ccc(-n2cccn2)cc1", "inhibition": "inconclusive: 46%"}, {"smiles": "COc1ccccc1C(=O)N1C[C@@H]2[C@H](c3ccccc31)[C@H](CO)N2CC1CCOCC1", "inhibition": "inactive: 2.13%"}, {"smiles": "NS(=O)(=O)c1cccc(NC(=O)CSc2ccccn2)c1", "inhibition": "inconclusive: 48.1%"}, {"smiles": "COc1ccc(C(CC(=O)Nc2ccccn2)N2Cc3ccccc3C2=O)cc1", "note": "(stereo unspecified)", "inhibition": "active: 75.6%"}, {"smiles": "CC(C)NC(=O)Nc1ccc2c(c1)C(=O)N([C@H](C)CO)C[C@@H](C)[C@@H](CN(C)C(=O)CCC(F)(F)F)OCCCC[C@H](C)O2", "inhibition": "inactive: -0.859%"}, {"smiles": "O=[N+]([O-])c1ccccc1/C=N/n1c(-c2ccccc2)n[nH]c1=S", "inhibition": "inactive: 3.11%"}, {"smiles": "C[C@@H]1CN([C@@H](C)CO)C(=O)c2cc(NC(=O)c3ccncc3)ccc2O[C@@H](C)CCCCO[C@@H]1CN(C)Cc1ccncc1", "inhibition": "inconclusive: 46.2%"}, {"smiles": "O=C(COC(=O)C1CC2CCCC(C1)C2=O)Nc1ccc(F)c(Cl)c1", "note": "(stereo unspecified)", "inhibition": "inconclusive: 47.8%"}, {"smiles": "CC(C)c1ccc(/C=N/NC(=O)C2CCCC2)cc1", "inhibition": "inconclusive: 46.2%"}, {"smiles": "Brc1ccc2ncnc(NCc3ccccc3)c2c1", "inhibition": "active: 42.4%"}, {"smiles": "O=C([C@@H]1[C@@H](CO)[C@@H]2Cn3c(cccc3=O)[C@@H]2N1CC1CCCCC1)N1CCOCC1", "inhibition": "inactive: -4%"}, {"smiles": "O=C(c1ccccc1NS(=O)(=O)c1cccc2cccnc12)N1CCOCC1", "inhibition": "inactive: -15.3%"}, {"smiles": "CN(c1ccccc1)S(=O)(=O)c1ccc(Cl)nc1", "inhibition": "inconclusive: 44.1%"}, {"smiles": "Cc1ccc(-c2cc(C(=O)N3CCOCC3)c3ccccc3n2)o1", "inhibition": "inconclusive: 44.8%"}, {"smiles": "CN(C)C(=O)C[C@H]1CC[C@@H](NC(=O)C2CCC2)[C@H](CO)O1", "inhibition": "inconclusive: 45.5%"}, {"smiles": "COC(=O)c1ccc2c(=O)n(CCCN3CCCC3=O)c(=S)[nH]c2c1", "inhibition": "inactive: -49.9%"}, {"smiles": "COc1ccc(S(=O)(=O)Nc2ccc3c(c2)[C@@H]2C[C@H](CC(=O)O)O[C@H](CO)[C@@H]2O3)cc1", "inhibition": "inactive: 5.47%"}, {"smiles": "COC(=O)c1cccc(NC(=O)CSc2nc3cccnc3n2C)c1", "inhibition": "inconclusive: 52.7%"}, {"smiles": "O=C(c1ccc(N2CCCC2=O)cc1)N1CCCCCC1", "inhibition": "inconclusive: 41.8%"}, {"smiles": "O=[N+]([O-])c1cc(CN2CCCC2)ccc1Sc1ccc(Cl)cc1", "inhibition": "inactive: -13.3%"}, {"smiles": "COc1ccc(OC)c(S(=O)(=O)Nc2ccc(F)cc2)c1", "inhibition": "inactive: -37%"}, {"smiles": "Cc1ccc2nc(C)cc(C(=O)OCC(=O)Nc3c(C)n(C)n(-c4ccccc4)c3=O)c2c1", "inhibition": "inactive: 5.86%"}, {"smiles": "N#Cc1ccc(CCc2ccccc2)[nH]c1=O", "inhibition": "inconclusive: 43.2%"}, {"smiles": "COc1ccc(N=C2S/C(=C\\c3ccc(N4CCOCC4)o3)C(=O)N2CCc2c[nH]c3ccccc23)cc1", "inhibition": "active: 62.1%"}, {"smiles": "N#C/C(=C(/O)c1cc2ccccc2o1)c1nc2ccccc2s1", "inhibition": "inconclusive: 43.8%"}, {"smiles": "C[C@H](CO)N1C[C@H](C)[C@H](CN(C)CC2CCCCC2)Oc2ccc(NC(=O)CCCN(C)C)cc2CC1=O", "inhibition": "inactive: -7.22%"}, {"smiles": "Cc1nnc(NC(=O)CSc2ncc(-c3ccccc3)[nH]2)s1", "inhibition": "active: 88.3%"}, {"smiles": "CC1CN(c2oc(-c3cccs3)nc2C#N)CC(C)O1", "note": "(stereo unspecified)", "inhibition": "inconclusive: 48.6%"}, {"smiles": "CO[C@H]1CN(C)C(=O)c2ccc(NS(=O)(=O)c3ccccc3)cc2OC[C@H](C)N(C(=O)NC(C)C)C[C@@H]1C", "inhibition": "inconclusive: 58.9%"}, {"smiles": "CC(C)n1c(=O)[nH]c2ccccc21", "inhibition": "inactive: -2.25%"}, {"smiles": "CCCCCCC1CC(=O)NC(=S)N1", "note": "(stereo unspecified)", "inhibition": "active: 62.8%"}, {"smiles": "CC1CCCCC1NC(=O)COC(=O)c1cc(=O)[nH]c2ccccc12", "note": "(stereo unspecified)", "inhibition": "inactive: 3.1%"}, {"smiles": "Cc1cc(C)c2c(=O)[nH]n(C3CCCCCC3)c2n1", "inhibition": "active: 87.9%"}, {"smiles": "CN(C)C(=O)c1ccc(-c2ccc3c(c2)[C@@H]2[C@@H](CCN2C(=O)c2cnccn2)[C@H](CO)N3)cc1", "inhibition": "inactive: 2.31%"}, {"smiles": "CCC(C(=O)c1ccccc1)N(C(=O)c1ccccc1Cl)N1C(=O)C2C3C=CC(C3)C2C1=O", "note": "(stereo unspecified)", "inhibition": "inactive: -15.6%"}, {"smiles": "CN(C)C(=O)C[C@H]1CC[C@@H]2[C@@H](COc3ccc(NC(=O)NCc4ccccc4)cc3C(=O)N2C)O1", "inhibition": "inactive: -10.1%"}, {"smiles": "CCCNC(=O)Nc1ccc2c(c1)C(=O)N(C)C[C@H](OC)[C@@H](C)CN(CCC)[C@H](C)CO2", "inhibition": "inactive: 2.48%"}, {"smiles": "CC1(Oc2cccc(F)c2)CCN(Cc2csc3ccccc23)C1", "note": "(stereo unspecified)", "inhibition": "inactive: -6.38%"}, {"smiles": "Cc1ccc(/C=N/N2CCN(Cc3ccccc3)CC2)cc1", "inhibition": "inconclusive: 53.9%"}, {"smiles": "CCC(=O)N1C[C@H](C)[C@@H](OC)CN(C)C(=O)c2cc(NC(=O)Nc3cccc(F)c3)ccc2OC[C@H]1C", "inhibition": "inconclusive: 55%"}, {"smiles": "CN(C)S(=O)(=O)N1CCN(C(=O)N2CCCCC2)CC1", "inhibition": "inactive: 1.02%"}, {"smiles": "Cc1ccc(Cc2cc(-c3ccc(C)cc3)n[nH]c2=O)cc1", "inhibition": "inactive: -9.84%"}, {"smiles": "CCOc1ccc(S(=O)(=O)NCc2ccco2)c2ccccc12", "inhibition": "inactive: -16.8%"}, {"smiles": "CN1CCN(C(=O)CCC(=O)O)CC1", "inhibition": "inactive: -3.29%"}, {"smiles": "COc1cc(NC(=S)NN2CCOCC2)cc(OC)c1", "inhibition": "inconclusive: 60.6%"}, {"smiles": "CC(=O)c1cccc(NC(=O)NC2CCCCCCC2)c1", "inhibition": "inactive: 2.39%"}, {"smiles": "C[C@H]1CN([C@@H](C)CO)S(=O)(=O)c2ccc(C#Cc3cccc(F)c3)cc2O[C@H]1CN(C)C(=O)NC1CCCCC1", "inhibition": "inactive: 14.8%"}, {"smiles": "COc1ccc(CCNC(=O)C2CCN(C(=O)c3ccc(F)cc3)CC2)cc1OC", "inhibition": "inconclusive: 46.3%"}, {"smiles": "C[C@@H]1CN([C@H](C)CO)C(=O)c2cccc(NC(=O)c3nc4ccccc4s3)c2O[C@@H]1CN(C)C(=O)Nc1ccc(F)cc1", "inhibition": "inconclusive: 45.9%"}, {"smiles": "Cc1nn(CCCC(=O)O)c(C)c1[N+](=O)[O-]", "inhibition": "inconclusive: 42.5%"}, {"smiles": "C[C@H](CO)N1C[C@H](C)[C@@H](CN(C)C(=O)Nc2ccc(-c3cccs3)cc2)OCc2cnnn2CCCC1=O", "inhibition": "inconclusive: 45.9%"}, {"smiles": "COc1ccc(NC(=O)N[C@@H]2C=C[C@@H](CC(=O)NCc3ccccn3)O[C@@H]2CO)cc1", "inhibition": "inconclusive: 47.7%"}, {"smiles": "CC(C)[C@H]1COCCS(=O)(=O)N1Cc1ccccc1F", "inhibition": "inconclusive: 49.7%"}, {"smiles": "COc1ccc(C(=O)NC(=S)N(C)Cc2ccccc2)cc1Br", "inhibition": "inconclusive: 49.2%"}, {"smiles": "O=C1CCCc2ccccc2N1Cc1ccc(Cl)cc1Cl", "inhibition": "active: 56%"}, {"smiles": "COc1ccccc1C(=O)N1C(CC(=O)Nc2cc(Cl)ccc2C)C(=O)NC2CCCCC21", "note": "(stereo unspecified)", "inhibition": "inconclusive: 44.2%"}, {"smiles": "CCOC(=O)c1ccccc1NC(=O)C1COc2ccccc2O1", "note": "(stereo unspecified)", "inhibition": "inactive: -4.4%"}, {"smiles": "COc1ccc(/C=C/C(=O)c2cc(F)ccc2OC(=O)c2ccc(OC)c(OC)c2)cc1OC", "inhibition": "inactive: -9.93%"}, {"smiles": "COc1ccc2nc3cc(Cl)ccc3c(Nc3cc(CN4CCCC4)c(O)c(CN4CCCC4)c3)c2n1", "inhibition": "active: 71.7%"}, {"smiles": "C[C@H]1CN([C@@H](C)CO)C(=O)Cc2cc(NC(=O)Nc3ccccc3)ccc2O[C@@H]1CN(C)Cc1ccccc1", "inhibition": "inconclusive: 50%"}, {"smiles": "Cc1ccc(-c2[nH]ncc2/C=C(\\C#N)C(=O)NC2CCCCC2)cc1", "inhibition": "inconclusive: 40.8%"}, {"smiles": "COc1cc(O)c(C(CC(=O)N2CCOCC2)c2ccc(N(C)C)cc2)c(OC)c1", "note": "(stereo unspecified)", "inhibition": "inconclusive: 48.6%"}, {"smiles": "CS(=O)(=O)N(CC(=O)Nc1ccc(CC#N)cc1)c1ccc(C23CC4CC(CC(C4)C2)C3)cc1", "inhibition": "inactive: -32%"}, {"smiles": "CN(C)S(=O)(=O)c1cc(NC(=O)CN2CCc3ccccc32)ccc1Cl", "inhibition": "active: 74.6%"}, {"smiles": "Cc1cc(=O)n2[nH]c(=O)c(N=Nc3ccccc3)c2[nH]1", "inhibition": "inconclusive: 43.6%"}, {"smiles": "CCC(=O)N1C[C@@H](O)COC[C@@H]2O[C@H](CC(=O)NC)CC[C@H]21", "inhibition": "inactive: -2.71%"}]}]}
